This is an account of results in article PMC4336329 (PLoS ONE, 2015).

Molecules are shown by their SMILES. Among all 310,000 compounds or so, about 14,000 (4.5%) showed an effect of 50% or more. Effects have a minus sign here. The list shows a part of the results.
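Note: peak tail current of the secondary pulse compared with the same well before compound.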

Sequence of human ether-à-go-go-related gene (hERG) potassium channel (Q12809 whole entry, looked up): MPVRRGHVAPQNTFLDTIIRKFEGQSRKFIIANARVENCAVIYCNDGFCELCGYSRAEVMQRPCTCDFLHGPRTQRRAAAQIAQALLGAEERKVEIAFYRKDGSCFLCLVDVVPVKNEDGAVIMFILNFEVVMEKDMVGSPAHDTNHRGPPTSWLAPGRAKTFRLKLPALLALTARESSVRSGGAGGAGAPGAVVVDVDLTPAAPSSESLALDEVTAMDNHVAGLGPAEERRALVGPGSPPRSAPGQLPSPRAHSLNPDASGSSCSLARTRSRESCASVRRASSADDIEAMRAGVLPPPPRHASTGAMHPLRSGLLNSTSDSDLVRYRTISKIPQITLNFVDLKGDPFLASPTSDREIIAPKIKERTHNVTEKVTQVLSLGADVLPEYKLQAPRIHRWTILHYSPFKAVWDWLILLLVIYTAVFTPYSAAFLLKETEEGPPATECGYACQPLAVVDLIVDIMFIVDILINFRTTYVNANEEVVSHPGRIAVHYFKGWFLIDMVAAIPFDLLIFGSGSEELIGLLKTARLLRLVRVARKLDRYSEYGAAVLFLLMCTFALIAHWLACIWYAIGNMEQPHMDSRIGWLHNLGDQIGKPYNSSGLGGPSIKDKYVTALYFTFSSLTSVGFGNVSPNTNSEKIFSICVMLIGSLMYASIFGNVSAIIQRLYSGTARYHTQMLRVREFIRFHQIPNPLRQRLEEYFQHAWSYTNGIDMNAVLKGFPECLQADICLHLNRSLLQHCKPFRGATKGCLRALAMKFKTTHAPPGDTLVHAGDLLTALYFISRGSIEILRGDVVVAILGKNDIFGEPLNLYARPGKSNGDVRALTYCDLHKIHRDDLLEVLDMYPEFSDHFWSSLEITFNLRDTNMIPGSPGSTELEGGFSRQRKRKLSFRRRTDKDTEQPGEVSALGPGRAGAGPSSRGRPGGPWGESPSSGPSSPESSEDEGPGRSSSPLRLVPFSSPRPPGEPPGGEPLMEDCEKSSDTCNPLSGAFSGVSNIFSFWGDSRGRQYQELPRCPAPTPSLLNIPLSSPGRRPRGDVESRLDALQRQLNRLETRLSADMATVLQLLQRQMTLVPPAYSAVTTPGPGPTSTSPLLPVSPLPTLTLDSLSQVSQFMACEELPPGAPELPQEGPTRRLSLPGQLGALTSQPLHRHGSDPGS

The assay concerns the target human ether-à-go-go-related gene (hERG) potassium channel (human, UniProt Q12809). The experiment in a line: primary screen, population patch clamp on CHO cells stably expressing hERG.
For `Cc1cccc2[nH]c(CN(C)C(=O)C3CCC(=O)N(C4CC4)C3)nc12` (stereo not shown), the “hERG current change (%, negative = inhibition) at 10uM” value worked out at 17.5%. As for `O=C(COc1ccccc1)N1CCN(C(=O)c2cccs2)CC1`, the figure is -13.4%.

As to `CSc1cc(-c2ccco2)oc1C(=O)c1ccco1`, the “hERG current change (%, negative = inhibition) at 10uM” value is on record as 0.806%. For `CC1CC(C)CN(C(=O)C2CCCN(c3ncnc4c3nc3n4CCCCC3)C2)C1` (stereo not shown), the “hERG current change (%, negative = inhibition) at 10uM” value is on record as -35.8%. The value for `COc1ccc(C(Nc2ccc(S(=O)(=O)N3CCOCC3)cc2)C(=O)NCCC(C)C)cc1OC` (stereo not shown) was -2.25%; that for `CCOc1c(N2CC(C)OC(C)C2)c(=O)c1=O` (stereo not shown) was 10.2%; that for `Cc1ccc(-c2csc(NC(=O)c3cccc(N4C(=O)CCC4=O)c3)n2)o1` was -8.13%.

Regarding `CCc1cccc2c(C(=O)COC(=O)/C=C/c3ccc(O)c(OC)c3)c[nH]c12`, the “hERG current change (%, negative = inhibition) at 10uM” value is on record as -0.674%. As for `O=C(CNC(=O)c1ccc(Cl)cc1Cl)OCCCn1c(=O)[nH]c2ccccc21`, the figure is -28%; as for `O=C(CCc1ccc(S(=O)(=O)N2CCOCC2)cc1)Oc1ccccc1`, -9.71%. As for `COc1ccc(C(=O)N2CCN(CCNC(=O)C(=O)Nc3ccc(F)cc3)CC2)cc1`, the figure is -69.6%; as for `O=C(O)Cn1nnc(-c2cccs2)n1`, 17.7%; as for `Cc1ccc(S(=O)(=O)N2CCN(C(=O)CN3CCCCC3)C2)cc1`, -3.76%. As for `CN(C)C(=O)CSc1ncccc1-c1nc2ccccc2[nH]1`, the figure is 13.1%. As to `O=C(OCCN=C1NS(=O)(=O)c2ccccc21)c1ccccc1`, the “hERG current change (%, negative = inhibition) at 10uM” value is listed as -4.4%. The value for `C[C@@H]1CN(Cc2cn(C)nc2-c2cccc(Cl)c2)C[C@H](C)O1` was 7.05%; that for `c1ccc(C[C@H]2CN=C(Nc3ccccc3)N2CCC2CCCC2)cc1` was -70.4%; that for `C/C(=N\N=C1\NC(=O)C(Cc2ccccc2)S1)c1ccccc1` (stereo not shown) was 16.2%. `CCOc1ccc(NC(=O)CSc2nnc(N)s2)c([N+](=O)[O-])c1`: the “hERG current change (%, negative = inhibition) at 10uM” value is recorded as -4.34%. In the case of `Fc1cc2[nH]c(=S)[nH]c2cc1Cl`, the “hERG current change (%, negative = inhibition) at 10uM” value is recorded as 15.9%.

`NC(=O)c1ccsc1NC(=O)C1CCCCC1`: the “hERG current change (%, negative = inhibition) at 10uM” value is given as -9.84%. As to `CC1=Nc2cc(C(=O)NCCCN3CCN(C)CC3)ccc2Sc2ccc(C)cc21`, the “hERG current change (%, negative = inhibition) at 10uM” value is recorded as -5.05%. As to `O=C(CSc1nc2scc(-c3ccccc3)c2c(=O)[nH]1)Nc1ccccc1`, the “hERG current change (%, negative = inhibition) at 10uM” value is reported as 17.9%. As for `CC(=O)Nc1cccc(NC(=O)COc2ccc3c(c2)OCO3)c1`, the figure is 4.48%; as for `COc1ccc(C2c3c(-c4ccccc4)n[nH]c3C(=O)N2c2ccc(C(=O)O)cc2)cc1` (stereo not shown), 8.05%. Consider `C=CC(C)N1C(=O)S/C(=C\c2ccc(N3CCOCC3)cc2C)C1=O` (stereo not shown), for which the “hERG current change (%, negative = inhibition) at 10uM” value is -0.998%.

Turning to `Cc1cccnc1Nc1nc(-c2ccccc2)cs1`, the “hERG current change (%, negative = inhibition) at 10uM” value is 11.3%. As for `COc1cc(OC)cc(C(=O)Nc2ncc3c(n2)CC(C)(C)CC3=O)c1`, the figure is -6.84%; as for `Cc1ccc(NCCCCO)cc1C`, 15.4%. Consider `CC(=O)c1cc(CC(=O)N2CCc3c([nH]c4ccccc34)C2c2ccccn2)cs1` (stereo not shown), for which the “hERG current change (%, negative = inhibition) at 10uM” value is recorded as -34.8%. Regarding `CCOc1ccc(CCNS(=O)(=O)c2ccc(-c3ccc(=O)[nH]n3)o2)cc1OCC`, the “hERG current change (%, negative = inhibition) at 10uM” value is on record as -7.29%. For `CCNc1ccc(S(=O)(=O)N2CCCCC2)cn1`, the “hERG current change (%, negative = inhibition) at 10uM” value turned out to be 5.02%.

Regarding `COCCNC(=O)CN(c1cc(Cl)ccc1OC)S(=O)(=O)c1ccc(C)c([N+](=O)[O-])c1`, the “hERG current change (%, negative = inhibition) at 10uM” value is 3.25%. For `COc1cccc(-c2nc(-c3ccc(NC(=O)c4cccnc4)cc3)no2)c1`, the “hERG current change (%, negative = inhibition) at 10uM” value is recorded as 0.251%. On to `O=S(=O)(c1ccccc1F)N1CCN(Cc2cc3c(cc2O)OCO3)CC1`, for which the “hERG current change (%, negative = inhibition) at 10uM” value is reported as -11.8%.

In the case of `CN(C)S(=O)(=O)c1cc(NC(=O)c2cc(=O)[nH]c3ccccc23)ccc1Cl`, the “hERG current change (%, negative = inhibition) at 10uM” value was determined as 14.9%. As for `NS(=O)(=O)c1ccc(NC(=O)c2ccc(Cl)c(S(=O)(=O)NCc3ccco3)c2)cc1`, the figure is 3.38%; as for `O=C(C1=C[C@H](c2ccc3c(c2)OCO3)C[C@H](OCCCCO)O1)N1CCOCC1`, -1.14%; as for `CC(Oc1ccc2c3c(c(=O)oc2c1)CCCC3)C(=O)NCC(O)c1ccccc1` (stereo not shown), 16.8%. As to `Cc1ccc(C(c2nnnn2C(C)(C)C)N(Cc2ccco2)Cc2cccs2)cc1` (stereo not shown), the “hERG current change (%, negative = inhibition) at 10uM” value is on record as 16%. For the compound `CCC(=O)/C=C1/Sc2ccc(OC)cc2N1CCO`, the “hERG current change (%, negative = inhibition) at 10uM” value turned out to be 17.9%. As for `Cc1cc(C)c(S(=O)(=O)Nc2nnc(C(C)C)s2)c(C)c1`, the “hERG current change (%, negative = inhibition) at 10uM” value worked out at 20.9%. The value for `N=C1SC(CC(=O)Nc2ccccc2[N+](=O)[O-])C(=O)N1c1ccccc1` (stereo not shown) was 20.7%; that for `N#Cc1cc2[nH]c3ccccc3c2[n+](-c2ccc([N+](=O)[O-])cc2)c1N.[Cl-]` was -65.1%. Turning to `CC(=O)c1sc(-c2ccc(F)cc2)cc1NS(=O)(=O)c1ccccc1`, the “hERG current change (%, negative = inhibition) at 10uM” value is recorded as 4.92%. With `CC1=CC(C#N)(C#N)C(C#N)(C#N)C(c2ccccc2)N1` (stereo not shown), the “hERG current change (%, negative = inhibition) at 10uM” value is given as 19.2%.

Turning to `COc1ccc(CN(C(=O)c2cccs2)c2ccccc2)cc1`, the “hERG current change (%, negative = inhibition) at 10uM” value is reported as 0.428%.

`[O-][n+]1c2c(nn1-c1ccccc1)/C(=N/O)CCC2`: the “hERG current change (%, negative = inhibition) at 10uM” value is on record as -8.05%. The value for `CCCN1CN(Cc2ccccc2)CC2=C1CC(C)(C)CC2=O.Cl` was -0.494%; that for `Cc1c(C(=O)N(C)C(C)c2ccccn2)oc2c(F)cccc12` (stereo not shown) was 3.08%; that for `COC(=O)c1c(C(=O)OC)c(-c2ccc(Cl)c(Cl)c2)n2c1CCC2` was 6.14%. As for `O=C(CSc1nc2ccccc2c(=O)n1-c1ccccc1)N1CCc2ccccc21`, the figure is 2.15%.
